This is an account of results in the supplement of paper PMC8728848.

This is one part of a sample in which the strongest signals are shown more often than they occur.

What all share (experiment): glycan array binding signal (z-score within array); higher = stronger binding
Holding throughout (conditions): glycan notation: IUPAC condensed, linker removed

Assay [1] concerns Neu5Ac(a2-3)[Neu5Ac(a2-6)]GalNAc. The gist of the method:
(§1)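 Negative Z-scores can be read as non-binding. The Z-score is calculated within each array and then averaged across arrays of one protein sequence at different concentrations or buffers and across linkers. Arrays, 3228 in all, were curated from the Consortium for Functional Glycomics database and kept only where the protein sequence was available.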

The subject of assay [2] is Neu5Ac(a2-6)Gal(b1-4)GlcNAc(b1-2)Man(a1-3)[GlcNAc(b1-2)Man(b1-4)GlcNAc(b1-2)Man(a1-6)]Man(b1-4)GlcNAc(b1-4)GlcNAc. The method, boiled down: as §1
Assay [3] has as its system Neu5Ac(a2-6)Gal(b1-3)GlcNAc(b1-3)[Gal(b1-4)GlcNAc(b1-6)]Gal(b1-4)Glc. The method, boiled down:
as §1

The subject of assay [4] is Neu5Ac(a2-6)Gal(b1-4)GlcNAc(b1-2)Man(a1-3)[GlcNAc(b1-2)Man(a1-6)]Man(b1-4)GlcNAc(b1-4)GlcNAc. The gist of the method:
as §1

Assay [5] concerns Neu5Ac(a2-6)Gal(b1-4)GlcNAc(b1-2)Man(a1-3)[Man(a1-6)]Man(b1-4)GlcNAc(b1-4)GlcNAc. The gist of the method: as §1
The test system of assay [6] is Neu5Ac(a2-6)Gal(b1-4)GlcNAc(b1-2)Man(a1-3)[GlcNAc(b1-4)][Neu5Ac(a2-6)Gal(b1-4)GlcNAc(b1-2)Man(a1-6)]Man(b1-4)GlcNAc(b1-4)GlcNAc. The method, boiled down: as §1

On to “M-Ficolin A256V (Homo sapiens) (chain not printed)”, for which the “glycan array binding signal (z-score)” value in assay [1] is -0.165; in assay [2], -0.036.

For the substance “Meso764 (Homo sapiens) (chain not printed)”, the “glycan array binding signal (z-score)” value in assay [3] is 0.43; in assay [4], -0.18; in assay [5], -0.386.

Regarding “Thrombomodulin Extracellular (Homo sapiens) (chain not printed)”, in assay [3], the “glycan array binding signal (z-score)” value was -0.902.

With “H-Ficolin (Homo sapiens) (chain not printed)”, the “glycan array binding signal (z-score)” value in assay [4] is -0.252.

As for MBP (Homo sapiens) (chain not printed), the “glycan array binding signal (z-score)” value in assay [6] is -0.42.
